Laboratory results: patent US20220389066A1, “POLYPEPTIDES” (Affibody AB, priority 2019, published 2022)

What was measured:
[1] = Circular dichroism (CD) spectroscopy, variable temperature measurement; assay type: physicochemical; settings: His6-tagged Z variants; CD at 221 nm, 20 to 80-90° C.
Description: Circular dichroism (CD) spectroscopy analysis: The His6-Z variants produced in Example 2 were diluted to 25 μM in PBS or H2O. A CD spectrum at 250-195 nm was obtained at 20° C. In addition, a variable temperature measurement (VTM) was performed to determine the melting temperature (Tm). In the VTM, absorbance was measured at 221 nm while the temperature was raised from 20° C. to 80° C. (in some cases to 90° C.), with a temperature slope of 5° C./min. A new CD spectrum was obtained at 20° C. after the heating procedure, in order to study the refolding ability of the Z variants. The CD measurements were performed on a Jasco J-810 spectropolarimeter (Jasco Scandinavia AB) using a cell with an optical path length of 1 mm.
Circular dichroism (CD) spectroscopy analysis: The measurements were performed essentially as described in Example 3.

HMGB1(red) = target: T1, HMGB1(red) (Rattus norvegicus, UniProt P63159); experiment: Biacore binding analysis of mutated Z variants, immobilized HMGB1(red); settings: His6-tagged Z variant as analyte; HBS-EP + 2 mM DTT; 1:1 model
T1 construct: purchased HMGBiotech Srl, Milano, Italy
T1 sequence (P63159 1-215): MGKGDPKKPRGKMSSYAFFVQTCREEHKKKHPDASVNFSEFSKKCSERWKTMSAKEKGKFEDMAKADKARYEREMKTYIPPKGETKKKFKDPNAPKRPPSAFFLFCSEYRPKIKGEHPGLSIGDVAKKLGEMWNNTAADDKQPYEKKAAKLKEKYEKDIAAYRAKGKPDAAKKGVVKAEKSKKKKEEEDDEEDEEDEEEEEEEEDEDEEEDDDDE
Description: (§1) Binding analysis of mutated Z variants: A binding analysis was performed using a Biacore 2000 instrument. All alanine mutated Z variants, together with the original Z variant ZH 01, were analyzed against GST-boxA(red), HMGB1(red), boxA(disulfide) and HMGB1(disulfide). The immobilizations and Biacore analyses were performed essentially as described in Example 3. However, in these analyses, the different targets were directly coupled to separate flow cells of different CM5 chip surfaces and a flow rate of 30 μl/min was used. The ligand immobilization levels on the surfaces were 1410 RU for GST-boxA(red), 1380 RU for HMGB1(red), 540 RU for boxA(disulfide) and 2900 RU for HMGB1(disulfide). The analytes, i.e. the Z variants, were each diluted in HBS-EP buffer (or in HBS-EP+2 mM DTT for use in analysis with reduced targets GST-boxA(red) and HMGB1(red)), within a concentration range of 50 to 1350 nM and injected for 3 min, followed by dissociation in running buffer for 35 min. No regeneration buffer was used in the analyses. Instead, the dissociation time was enough for all binders to dissociate from the chip surfaces. HBS-EP was used as running buffer for targets boxA(disulfide) and HMGB1(disulfide) while HBS-EP+2 mM DTT was used for reduced targets GST-boxA(red) and HMGB1(red). The dissociation constants were calculated as in Example 3.

b-GST-boxA(red) = target: T2, b-GST-boxA(red) (Homo sapiens, UniProt P09429); experiment: ELISA screening of Z variants against reduced A-box; assay type: binding; settings: target concentration 2 nM; periplasmic Z-ABD fusion; at least 3× the blank control
T2 construct: purchased HMGBiotech Srl, Milano, Italy
T2 sequence (P09429 with tags, fused parts or gaps): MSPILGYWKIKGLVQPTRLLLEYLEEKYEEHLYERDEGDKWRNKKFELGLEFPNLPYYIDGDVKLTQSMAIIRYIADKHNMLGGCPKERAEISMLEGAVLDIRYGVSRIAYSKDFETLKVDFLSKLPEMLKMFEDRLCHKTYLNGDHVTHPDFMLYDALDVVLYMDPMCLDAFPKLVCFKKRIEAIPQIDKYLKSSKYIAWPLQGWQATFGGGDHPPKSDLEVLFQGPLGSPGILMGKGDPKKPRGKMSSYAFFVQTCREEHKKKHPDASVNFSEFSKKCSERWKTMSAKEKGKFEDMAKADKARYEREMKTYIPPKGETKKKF
Description: (§2) ELISA screening of Z variants against reduced A-box and B-box: The binding of Z variants to HMGB1 was analyzed in ELISA assays. Half-area 96-well ELISA plates (Greiner, cat. no. 675061) were coated at 4° C. overnight with 2 μg/ml of an anti-ABD goat antibody (produced in-house) diluted in coating buffer (50 mM sodium carbonate, pH 9.6; Sigma, cat. no. C3041). The antibody solution was poured off and the wells were washed in water and blocked with 100 μl of PBSC (PBS supplemented with 0.5% casein; Sigma, cat. no. C8654) for 1-3 h at RT. The blocking solution was discarded and 50 μl periplasmic solutions, diluted 1:16 with PBST 0.05%, were added to the wells and incubated for 1.5 to 2.5 h at RT under slow agitation. As a negative control, periplasmic ABD was added. The supernatants were poured off and the wells were washed 4 times with PBST 0.05%. Then, 50 μl of either b-GST-boxA(red), at a concentration of 2 nM, or b-GST-boxB(red), at a concentration of 100 nM, in PBSC+1-2 mM DTT, was added to each well of A-box binding Z-variants or B-box binding Z-variant, respectively. The plates were incubated for 1 h at RT followed by washes as described above. Streptavidin conjugated HRP (Thermo Scientific, cat. no. N100) diluted 1:30,000 in PBSC+1-2 mM DTT, was added to the wells and the plates were incubated for approximately 45 min. After washing as described above, 50 μl ImmunoPure TMB substrate (Thermo Scientific, cat. no. 34021) was added to the wells and the plates were treated according to the manufacturer's recommendations. The absorbance at 450 nm was measured using a multi-well plate reader, Victor3 (Perkin Elmer).

HMGB1(disulfide) = target: T3, HMGB1(disulfide) (Rattus norvegicus, UniProt P63159); experiment: Biacore binding analysis of mutated Z variants, immobilized HMGB1(disulfide); settings: His6-tagged Z variant as analyte; HBS-EP; 1:1 model
T3 construct: purchased HMGBiotech Srl, Milano, Italy
T3 sequence (P63159 1-215): T1 sequence (P63159 1-215)
Description: as §1

b-boxA(disulfide) = target: T4, b-boxA(disulfide) (Homo sapiens, UniProt P09429); experiment: ELISA screening against the disulfide form of A-box; assay type: binding; settings: target concentration 1000 nM; at least 3× the blank control
T4 construct: purchased HMGBiotech Srl, Milano, Italy
T4 sequence (P09429 1-89): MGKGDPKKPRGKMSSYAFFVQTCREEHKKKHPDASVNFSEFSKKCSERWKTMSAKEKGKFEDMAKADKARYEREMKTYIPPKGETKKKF
Description: as §2
(§3) ELISA screening of Z variants against the disulfide form of A-box and against HMGB1: To find out if selected A-box binding Z variants could also bind the disulfide form of HMGB1, A-box binding variants were screened in the same setup as described above against b-boxA(disulfide) at a concentration of 1000 nM and b-HMGB1(disulfide) at a concentration of 100 nM in PBSC.).

b-HMGB1(disulfide) = target: T5, b-HMGB1(disulfide) (Rattus norvegicus, UniProt P63159); experiment: ELISA screening against HMGB1(disulfide); assay type: binding; settings: target concentration 100 nM; at least 3× the blank control
T5 construct: purchased HMGBiotech Srl, Milano, Italy
T5 sequence (P63159 1-215): T1 sequence (P63159 1-215)
Description: as §2, §3

GST-boxA(red) = target: T6, GST-boxA(red) (Homo sapiens, UniProt P09429); experiment: Biacore binding analysis of mutated Z variants, immobilized GST-boxA(red); settings: His6-tagged Z variant as analyte; HBS-EP + 2 mM DTT; 1:1 model
T6 construct: purchased HMGBiotech Srl, Milano, Italy
T6 sequence (P09429 with tags, fused parts or gaps): as the sequence (P09429 with tags, fused parts or gaps) above
Description: as §1

With “ZH01: HMGB1 A-box binding Z variant, 58 amino acid residues, from primary phage display selection (VDAKYAKEDWDAFWEIIWLPNLTDAQQRAFIYKLEDDPSQSSELLSEAKKLNDSQAPK; Engineered HMGB1 binding polypeptide)” the “Tm (° C.)” value [1] was 49 °C, the Kd (HMGB1(red)) was 12 nM and the “average ELISA response against b-GST-boxA(red)” value (b-GST-boxA(red)) was 0.7 AU. For the same substance, the Kd (HMGB1(disulfide)) was 170 nM, the “ELISA response against b-boxA(disulfide)” value (b-boxA(disulfide)) was 3.06 AU and the “ELISA response against b-HMGB1(disulfide)” value (b-HMGB1(disulfide)) was 3.07 AU. For the same substance, the Kd (GST-boxA(red)) was 25 nM.
